Data reported in PMC7819943, “Rice protein-binding microarrays: a tool to detect cis-acting elements near promoter regions in rice”.
Some of the results follow.

The sequences below were run against T1, OsWOX13 (Oryza sativa, UniProt Q5QMM3 1-267) (assay: protein-binding microarray (RPBM); PBS, 2% BSA, 51.3 ng/ul salmon testes DNA, 50 uM zinc acetate, 200 nM TF, 25 C, 1 h; high values mean tight binding). Conditions: protein: recombinant; tags: N-terminal polyhistidine and DsRed monomer fusion (pET32a); label: CyDye5-dUTP incorporated in the synthesized complementary strand; 3' TTTTT single-stranded linker to array surface; dsDNA, one strand shown.
T1 sequence: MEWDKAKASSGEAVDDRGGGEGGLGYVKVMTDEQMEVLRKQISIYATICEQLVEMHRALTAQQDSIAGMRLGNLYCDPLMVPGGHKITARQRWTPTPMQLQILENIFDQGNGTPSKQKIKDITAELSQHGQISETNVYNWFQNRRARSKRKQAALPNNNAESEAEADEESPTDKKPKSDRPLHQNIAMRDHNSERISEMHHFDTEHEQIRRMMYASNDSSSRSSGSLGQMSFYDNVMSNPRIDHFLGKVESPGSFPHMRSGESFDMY
Summary of the method: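 Transcription factors, each fused N-terminally to a polyhistidine tag and DsRed, were expressed in E. coli BL21-CodonPlus and purified on Ni–NTA. A custom Agilent array was made double-stranded by primer extension with Cy5-dUTP and blocked with 2% BSA. It was incubated with 200 nM protein in PBS, 2% BSA, salmon testes DNA and 50 µM zinc acetate at 25 °C for 1 h, then washed. The binding signal is per-feature fluorescence intensity (arbitrary units) read on an Axon 4000B scanner.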
For “ATCAAGATAATTACATCAAAGTGATACAGGAGTCATAAAACGGAGTCACCTAGTGCAG”, the binding signal was 5770 fluorescence intensity (a.u.).
With “ACTCCTAATTAATTTGCATGCATCTTCGCAGCAACTCAGTCGGAGTCACCTAGTGCAG” the binding signal was 37800 fluorescence intensity (a.u.).
“TAAAACAATTATATGCCCATAATGGTATTTTAGGTATTTTCGGAGTCACCTAGTGCAG” was tested, and the binding signal was 5040 fluorescence intensity (a.u.).
“TTAAACGTAGATTACTAACAAAACCGATTCCATAACCCCTCGGAGTCACCTAGTGCAG” was tested, and the binding signal was 3350 fluorescence intensity (a.u.).
With “TCAGACTCTTGTTGATTGTGATGACTTTGTCTGCAGACTTCGGAGTCACCTAGTGCAG” the binding signal was 11100 fluorescence intensity (a.u.).
For “TTTTATTGTTAACTAGGCATGATTTTACGTGGAATCTTGTCGGAGTCACCTAGTGCAG”, the binding signal was 6660 fluorescence intensity (a.u.).
With “TCTAAACACCACCTTAATTTGTAGGAGTAGCTGTCTGTCTCGGAGTCACCTAGTGCAG” the binding signal was 10700 fluorescence intensity (a.u.).
In the case of “ACCAGATTATTACAGAATCTTGTGAAAGATAAAATGGTCTCGGAGTCACCTAGTGCAG”, the binding signal is reported as 6450 fluorescence intensity (a.u.).
“CATTGTGATTAGCCTTAACCAATTATAACCATCACGGCAACGGAGTCACCTAGTGCAG” was tested, and the binding signal was 33900 fluorescence intensity (a.u.).
For “CTCATTCCTTCAATCATCATGAGTTAATGACACCTCAAACCGGAGTCACCTAGTGCAG”, the binding signal was 14000 fluorescence intensity (a.u.).
“AAAATTTCCAATTTGCAGTGTGGCTGACAGTTTCCTTATTCGGAGTCACCTAGTGCAG” was tested, and the binding signal was 5780 fluorescence intensity (a.u.).
For “AACAATTAATCATGTAAATTTAATGTTACTATATTTATCTCGGAGTCACCTAGTGCAG”, the binding signal was 27600 fluorescence intensity (a.u.).
In the case of “AATCATCAAATTATTATTGCTAATTGATAATAATAATAATCGGAGTCACCTAGTGCAG”, the binding signal is reported as 17500 fluorescence intensity (a.u.).
With “GTTAATGATTAATTAGAGCATTTGTTGTCTCAACTATTGTCGGAGTCACCTAGTGCAG” the binding signal was 58600 fluorescence intensity (a.u.).
With “TTGATCAGCTAATTAATACAACCCAACCTTCACTAAGTTGCGGAGTCACCTAGTGCAG” the binding signal was 14500 fluorescence intensity (a.u.).
With “CGTTGATTGCCGATTCGACGATCCCACGGCTGAGAAAGGGCGGAGTCACCTAGTGCAG” the binding signal was 51400 fluorescence intensity (a.u.).
For “AAGTAATCTCAAAAGAATTGATTTCTAGCCCCATACCTAACGGAGTCACCTAGTGCAG”, the binding signal was 4290 fluorescence intensity (a.u.).
“CCCAACAAATCACAAGCTTAATTACAAACATTGCAGCCTGCGGAGTCACCTAGTGCAG” was tested, and the binding signal was 22000 fluorescence intensity (a.u.).
“GGACGATTAATTACACTCCGGTTGCAAATTCAGCATGCTGCGGAGTCACCTAGTGCAG” was tested, and the binding signal was 11600 fluorescence intensity (a.u.).
In the case of “CAAATTTGAATCAAATATAATTCAAATTCAAATTTAAATCCGGAGTCACCTAGTGCAG”, the binding signal is reported as 4840 fluorescence intensity (a.u.).
In the case of “TTAATTCTAATTGTCCAGGTGTATTGTGACGATTCTTTTGCGGAGTCACCTAGTGCAG”, the binding signal is reported as 4040 fluorescence intensity (a.u.).
With “CTCGTTTCTTAATTTCATTAATTAACCCCTTCATGATTGCCGGAGTCACCTAGTGCAG” the binding signal was 12500 fluorescence intensity (a.u.).
For “AGGAAAATCTTAGGTGAGTGATTGTACATCAATGTTGTCACGGAGTCACCTAGTGCAG”, the binding signal was 5380 fluorescence intensity (a.u.).
For “ATTACATAGATTGCGACTAATTTGCGAGACAAATCTTTTACGGAGTCACCTAGTGCAG”, the binding signal was 19500 fluorescence intensity (a.u.).
“CACACATCAATCATTCTTTGTGCTTACTGCGTCCACGAGCCGGAGTCACCTAGTGCAG” was tested, and the binding signal was 14900 fluorescence intensity (a.u.).
With “CCTTTAATCATAGGATTGAGAAAACGTAGGAATAAGAAAACGGAGTCACCTAGTGCAG” the binding signal was 4860 fluorescence intensity (a.u.).
In the case of “CAAAATTAAACTTTAAAATTCAGACTTCAGACTCCAGTGCCGGAGTCACCTAGTGCAG”, the binding signal is reported as 13400 fluorescence intensity (a.u.).
For “CATTTTGATATATCAATCGTCTTTATCACATGTAACGACACGGAGTCACCTAGTGCAG”, the binding signal was 10700 fluorescence intensity (a.u.).
“GAATATATTCAATTATTGATTTGATGAAACTAATTAAATACGGAGTCACCTAGTGCAG” was tested, and the binding signal was 14200 fluorescence intensity (a.u.).
In the case of “TGCATTAATTATTGGAGAGTGCGGTCTCCTCTCCTCCCTCCGGAGTCACCTAGTGCAG”, the binding signal is reported as 23200 fluorescence intensity (a.u.).
In the case of “AATATGATTGCTTTGTGGGTGTATGGTTCATTTTCAATGGCGGAGTCACCTAGTGCAG”, the binding signal is reported as 47700 fluorescence intensity (a.u.).
In the case of “AGTTTGTGATTATAGCTTCCCTAAATGTATTTCAGCAGGACGGAGTCACCTAGTGCAG”, the binding signal is reported as 7140 fluorescence intensity (a.u.).
“AATCCAATTACACACATGATATGCAGGGGACCATCAGAAGCGGAGTCACCTAGTGCAG” was tested, and the binding signal was 20700 fluorescence intensity (a.u.).
In the case of “AGTATGGCAGCCACGAAATGATTGAAATCAACTGGCTCTTCGGAGTCACCTAGTGCAG”, the binding signal is reported as 7450 fluorescence intensity (a.u.).
With “TCGATAAATTGAGGAGACCAAAATTCACGAAATCAACATACGGAGTCACCTAGTGCAG” the binding signal was 7550 fluorescence intensity (a.u.).
“CCTGATTCCTTCAACTGTTTCGTCAGCCATGACGAGCGTTCGGAGTCACCTAGTGCAG” was tested, and the binding signal was 6750 fluorescence intensity (a.u.).
“AATATAACGAAACATGCAATCAATCAAAATGTTGGGAAGGCGGAGTCACCTAGTGCAG” was tested, and the binding signal was 12400 fluorescence intensity (a.u.).
In the case of “GATGATAGACAAAACTGAGTTTATGACAATTATTCGAGAGCGGAGTCACCTAGTGCAG”, the binding signal is reported as 51600 fluorescence intensity (a.u.).
